Laboratory results published in the BET-seq Pho4 binding data (Le et al. 2018).
The list shows a part of the results. Values were computed here from the reads of four pooled replicates and scatter widely.

The sequences below were run against T1, Pho4 (S. cerevisiae) (UniProt P07270) (assay: relative binding free energy (BET-seq); higher = weaker binding). Conditions: reference: library average.
T1 sequence: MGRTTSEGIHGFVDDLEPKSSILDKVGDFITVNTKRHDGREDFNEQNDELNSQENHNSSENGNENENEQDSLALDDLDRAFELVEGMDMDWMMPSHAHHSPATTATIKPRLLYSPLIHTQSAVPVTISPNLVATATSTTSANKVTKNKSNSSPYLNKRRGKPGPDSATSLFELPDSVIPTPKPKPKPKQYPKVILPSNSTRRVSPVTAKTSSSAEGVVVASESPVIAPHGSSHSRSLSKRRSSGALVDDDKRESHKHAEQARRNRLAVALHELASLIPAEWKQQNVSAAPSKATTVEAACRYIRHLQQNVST

| Sequence | relative binding free energy [kcal/mol] |
| --- | --- |
| CGGGTCACGTGGGCTG | -0.03 |
| GTTTGCACGTGGTCTA | -0.06 |
| AACGGCACGTGAGGAT | 0.19 |
| TTTTCCACGTGAGTGG | 0.13 |
| ATTGACACGTGCGTGC | -0.01 |
| CTGATCACGTGATGGT | 0.19 |
| GCGGGCACGTGTGTAA | 0.02 |
| CGGTTCACGTGCGGTT | 0.21 |
| TTCTACACGTGTTTTG | 0.03 |
| GCTTGCACGTGGTTTA | 0.03 |
| AGATGCACGTGGTAGA | 0 |
| GAGTTCACGTGTTTTA | 0.32 |
| TTGGTCACGTGAATTG | 0.28 |
| ATGGGCACGTGGCATG | -0.21 |
| ATCGTCACGTGTGTCT | 0.22 |
| TGTTGCACGTGGGCTG | -0.16 |
| TTGAGCACGTGTGGCA | -0.1 |
| TTGTGCACGTGGTATT | -0.01 |
| CTTATCACGTGGAAGG | 0.18 |
| GCTTTCACGTGTGACT | 0.48 |
| TAATGCACGTGTTAGA | -0.1 |
| TGTCGCACGTGTCTTT | -0.03 |
| TATGTCACGTGTGAAG | 0.13 |
| CGTGTCACGTGCAATG | 0.26 |
| GTCGTCACGTGTTGTC | 0.21 |

| Sequence | relative binding free energy [kcal/mol] |
| --- | --- |
| GTTGGCACGTGAGTGC | 0.13 |
| TTTGCCACGTGAGTAT | 0.05 |
| TGAAACACGTGTGAGT | 0.15 |
| ATGGGCACGTGGCTTT | -0.15 |
| AGTTGCACGTGTTGTC | -0.09 |
| ATTAACACGTGTTCGT | -0.08 |
| GGTGGCACGTGATCAT | -0.14 |
| AGTGTCACGTGTAAGG | 0.14 |
| CTGGTCACGTGGAGTA | 0.02 |
| GTTGGCACGTGGTTGA | -0.09 |
| TTTATCACGTGCTTGC | 0.16 |
| TTTATCACGTGCTTTA | -0.03 |
| TGGAGCACGTGGGCAG | -0.26 |
| TGGTACACGTGGTAGG | 0.16 |
| CGGGTCACGTGTGCAA | 0.31 |
| ATTTTCACGTGAAGGT | 0.44 |
| TTTTTCACGTGGTTCA | 0.21 |
| TTGTCCACGTGAGTGA | 0.24 |
| AGGGGCACGTGTTCAG | -0.27 |
| TTGAGCACGTGGTTGT | -0.04 |
| GGGCACACGTGTGTCG | 0.15 |
| TTGGTCACGTGATCGT | 0.13 |
| TGATACACGTGTAAAG | 0.12 |
| TATGTCACGTGACGGT | 0.13 |
| TGTGTCACGTGCTTAT | 0.02 |

| Sequence | relative binding free energy [kcal/mol] |
| --- | --- |
| TAATTCACGTGGAGTC | 0.32 |
| TTTGGCACGTGGAAGC | -0.03 |
| CTATGCACGTGGAATT | 0.17 |
| TTGTACACGTGCTGTA | -0.02 |
| AGGCGCACGTGCTGGT | -0.2 |
| CTGTGCACGTGGTGAA | -0.12 |
| GTTAGCACGTGGAAGT | 0.16 |
| GTCGGCACGTGTTGCT | 0.06 |
| GATCACACGTGGTGGA | 0.13 |
| TTATTCACGTGACAGG | 0.36 |
| CGCTGCACGTGGTAGG | -0.09 |
| AGGGCCACGTGGCGTA | -0.27 |
| AAGTTCACGTGGTCTA | 0.17 |
| TTCGGCACGTGTCTGG | 0.01 |
| ATAAGCACGTGGTAGG | -0.16 |
| TCATTCACGTGAGGTG | 0.42 |
| TGGGACACGTGTAATT | 0.2 |
| TGTTACACGTGAAGAG | 0.42 |
| AGGGGCACGTGTGGGT | -0.17 |
| ATTCTCACGTGATATT | 0.34 |
| ATCGTCACGTGGAGTT | 0.08 |
| GTCTGCACGTGATGGG | 0.24 |
| TTAATCACGTGAGGCA | 0.4 |
| GATGACACGTGTGTTG | 0.11 |
| GTTAGCACGTGAAGGC | 0.23 |

| Sequence | relative binding free energy [kcal/mol] |
| --- | --- |
| TCGTACACGTGTTGTG | 0.01 |
| TCGTCCACGTGGGGAT | 0.07 |
| ATAGGCACGTGGTCTG | -0.28 |
| TTGTACACGTGTTCAA | 0.08 |
| AATGTCACGTGGATTA | 0.24 |
| GGCGGCACGTGGGGGC | -0.2 |
| TTACTCACGTGAGTGG | 0.22 |
| GCGTTCACGTGTGATT | 0.36 |
| TTTAGCACGTGGTGCA | -0.27 |
| GGTTACACGTGATTGG | 0.32 |
| TTTCTCACGTGCTTGT | 0.19 |
| CGTAGCACGTGGTTAT | -0.09 |
| AGGGGCACGTGGGCCA | -0.34 |
| AGTGTCACGTGGTGCG | 0.07 |
| TTACTCACGTGGTGGT | 0.16 |
| GAGGGCACGTGGTTTG | -0.01 |
| ATGGGCACGTGGGCTA | -0.4 |
| TTAAGCACGTGTTGTC | 0.06 |
| ACGATCACGTGTATGT | 0.18 |
| GATGGCACGTGACGTT | 0.14 |
| TTAGTCACGTGGTGCT | -0.11 |
| GGAAGCACGTGTTGGC | -0.04 |
| CGCAGCACGTGTGGGT | -0.09 |
| ATGATCACGTGGGTTT | 0.08 |
| TGTGTCACGTGCATGG | 0.06 |

| Sequence | relative binding free energy [kcal/mol] |
| --- | --- |
| GTTACCACGTGTAGGT | -0.02 |
| TTAACCACGTGTTGAG | 0.03 |
| AGAATCACGTGTGATT | 0.14 |
| CGAGGCACGTGGTTAG | -0.12 |
| GTGTGCACGTGAGACG | 0.23 |
| GGCTGCACGTGAAGTT | 0.26 |
| CTGTACACGTGGGGGC | -0.22 |
| GAGACCACGTGGTGTT | 0.15 |
| AGATTCACGTGGCTAG | 0.23 |
| TGTGGCACGTGCGAGA | -0.14 |
| ATTGGCACGTGGGGTG | -0.3 |
| TGCGGCACGTGGAGCG | -0.1 |
| TGAGTCACGTGAGCGA | 0.23 |
| TGTAGCACGTGGAGCG | -0.03 |
| ACTGTCACGTGCTTGT | 0 |
| TGAAGCACGTGAAGGG | 0.15 |
| AACTGCACGTGAAGTG | 0.38 |
| TGGTTCACGTGCCGTT | 0.19 |
| CTATTCACGTGTATTT | 0.08 |
| AGACGCACGTGGTGTG | -0.06 |
| AATAACACGTGGGAAG | 0.05 |
| TCGGGCACGTGGCGGG | -0.15 |
| TGTATCACGTGGATGC | 0.03 |
| CATGACACGTGGGTTT | -0.08 |
| GTTGTCACGTGCAGGC | 0.06 |

| Sequence | relative binding free energy [kcal/mol] |
| --- | --- |
| AGGGCCACGTGGGTGC | -0.41 |
| CTTGTCACGTGGTTGT | 0.01 |
| TAATGCACGTGGGTAT | -0.17 |
| AAGGACACGTGCTGTT | 0.07 |
| TTCGGCACGTGAGAGC | 0.2 |
| ATAATCACGTGGGTGG | -0.09 |
| GTATTCACGTGGCTTA | 0.23 |
| AAATGCACGTGAATAT | 0.32 |
| CTTGACACGTGGTGAA | -0.03 |
| TATATCACGTGGGCGT | -0.04 |
| GGAGACACGTGTAGAG | 0.06 |
| TCCGCCACGTGGGGGG | -0.21 |
| GTGGGCACGTGGTTTT | -0.14 |
| TAAGACACGTGAGTTA | 0.27 |
| GTTTACACGTGCTTCG | 0.2 |
| AGTGTCACGTGGCATA | -0.08 |
| TGTGTCACGTGTATCT | 0.09 |
| TCTTTCACGTGTGAAG | 0.26 |
| TGTCACACGTGGTGGC | -0.02 |
| TGGTTCACGTGCGTTG | 0.17 |
| TAGTGCACGTGTGACT | -0.05 |
